Test results as given in PubChem BioAssay AID624296 (National Center for Advancing Translational Sciences (NCATS), 2012).
About 9,900 (2.8%) of roughly 350,000 compounds were called active. Inconclusive results, whose numbers are uncertain, are shown with a selection of clear calls. Calls come from the whole dose curve; as a rule, active = well fitted activation curve with a large enough effect; inconclusive = small, poorly fitted or top-dose-only effect; inactive = no such curve, though single readings can be large or run the other way. Potencies of inconclusive entries are left out as doubtful fits.

Experiment: A quantitative high throughput screen for small molecules that induce DNA re-replication in MCF 10a normal breast cells. For activity, positive = re-replication: % of control where 0% means no effect. Note: nearly all actives have a fitted effect of over 50% in size.
Conditions: MCF 10A DNA re-replication, Hoechst nuclear intensity, 48 h; activity, positive = re-replication: at 46.1 µM (top of the series)
Potency is the fitted concentration of half-maximal effect; tags give direction and shape of the fitted curve.

| Structure (SMILES) | activity, positive = re-replication | Potency |
| --- | --- | --- |
| COc1ccc(C(=O)CN2C(=O)c3ccccc3S2(=O)=O)cc1 | inactive: 0.711% | – |
| Cc1nc(SCc2ccc(Br)cc2)[nH]c(=O)c1C | – | active: 7.31 µM |
| Nc1nc(-c2cc(-c3ccccc3)no2)cs1 | inactive: 5.72% | – |
| O=C(COC(=O)c1cccc(S(=O)(=O)NCc2ccccc2)c1)Nc1ccccc1OC(F)F | – | inconclusive [activator, partial curve, poor fit] |
| Cc1cc(S(=O)(=O)N2CCCOC2CNC(=O)C(=O)NCc2cccs2)ccc1F (stereo not drawn) | – | inconclusive [activator, partial curve, poor fit] |
| Cn1c(=O)c2c(nc(SCCN3CCOCC3)n2Cc2cccc3ccccc23)n(C)c1=O | inactive: -1.52% | – |
| Cc1nc2ccc(NC(=O)Cc3ccsc3)cc2s1 | inactive: 1.71% | – |
| CCOC(=O)CSc1nc2sccc2c(=O)[nH]1 | – | inconclusive [activator, single point] |
| Cc1cc(OCC(=O)OCC(=O)NCc2cccs2)ccc1Cl | inactive: 3.21% | – |
| C[C@H]1C(c2ccc(F)cc2)=NN(c2ccccc2)[C@@H]1CO | – | active: 10.3 µM |
| Cc1sc2nc(Cc3ccccc3)[nH]c(=O)c2c1-c1ccccc1 | inactive: 1.51% | – |
| CCC(=O)Nc1nc2ccccc2n1Cc1ccccc1Cl | – | inconclusive [activator, partial curve, poor fit] |
| CCC(C(=O)Nc1cc(C)nn1-c1nc(C)cc(C)n1)c1ccccc1 (stereo not drawn) | – | inconclusive [activator, full curve, poor fit] |
| C=C1CCC(O)C/C1=C/C=C1\CCC[C@]2(C)[C@@H]([C@H](C)/C=C/[C@H](C)C(C)C)CC[C@@H]12 (stereo partly drawn) | – | inconclusive [activator, single point] |
| COC(=O)C1(C(O)C(=O)c2ccc(C)cc2C)CCCCC1 (stereo not drawn) | – | inconclusive [activator, partial curve, poor fit] |
| C=CCNC(=S)N/N=C/c1cn(-c2ccccc2)nc1-c1ccc(OC)cc1 | – | inconclusive [activator, single point] |
| Cc1cccc(-c2cc3nc(C)cc(N4CC(C)CC(C)C4)n3n2)c1 (stereo not drawn) | – | inconclusive [activator, partial curve, poor fit] |
| C=CCOc1ccc(C2C(C#N)=C(N)N(Nc3ccccc3)C3=C2C(=O)CC(C)(C)C3)cc1OC (stereo not drawn) | – | inconclusive [activator, single point] |
| Clc1ccc(COn2c(-c3ccc(Cl)cc3Cl)nc3ncccc32)cc1 | – | inconclusive [activator, single point] |
| CC(/C=C/c1ccccc1)=N\NC(=O)c1cc(C)nc2ccccc12 | – | inconclusive [activator, single point] |
| Cc1ccc(-c2nc(CN(C)C(C3CC3)C3CC3)c(C)o2)cc1 | – | inconclusive [activator, partial curve] |
| CCCOC(=O)C1C2C=CC(C3CC23)C1C(=O)OCC(=O)c1ccccc1 (stereo not drawn) | – | inconclusive [activator, single point] |
| Cc1sc2ncnc(SCC(=O)Nc3nc(-c4ccc(F)c(F)c4)cs3)c2c1C | – | inconclusive [activator, partial curve, poor fit] |

| Structure (SMILES) | activity, positive = re-replication | Potency |
| --- | --- | --- |
| CCOc1ccc(CCn2c(-c3ccco3)nc3ccccc3c2=O)cc1OCC | – | inconclusive [activator, partial curve, poor fit] |
| C/C(=N/NC(N)=S)c1cc2ccc(O)cc2oc1=O | – | active: 18.4 µM |
| CN(Cc1ccccc1)Cc1nc2c(c(=O)n(C)c(=O)n2C)n1Cc1ccc(Cl)cc1 | – | inconclusive [activator, single point] |
| CCCNC(=O)C(=O)Nc1ccc2c(c1)N(S(=O)(=O)c1cccs1)CCC2 | – | active: 14.6 µM |
| CCCS(=O)(=O)N1CCCC(C(=O)Oc2ccc(C)c(C)c2)C1 (stereo not drawn) | – | inconclusive [activator, single point] |
| O=C(Nc1ccon1)c1nc[nH]c1C(=O)NCc1ccccc1 | – | inconclusive [activator, partial curve, poor fit] |
| CC(C)Cn1c(CCCNC(=O)c2ccco2)nc2ccccc21 | inactive: 0.883% | – |
| O=c1[nH]nc(SCCS(=O)(=O)c2ccc(F)cc2)n1-c1ccccc1 | – | active: 23.1 µM |
| Cc1ccc(NC(=S)NNc2ccc([N+](=O)[O-])cc2S(=O)(=O)Nc2ccccc2C(=O)O)cc1C | – | inconclusive [activator, single point] |
| CCNC(=O)c1ccc2c(c1)C1C3CCC(C3)C1C(c1ccccc1)N2 (stereo not drawn) | – | inconclusive [activator, single point] |
| COc1ccccc1-c1nnc2sc(-c3ccc(N(C)C)cc3)nn12 | inconclusive: 36.4% [activator] | – |
| COc1ccc(N(CC(=O)Nc2cccnc2)S(=O)(=O)c2ccc(C)cc2)cc1Cl | inactive: -4.43% | – |
| CCOC(=O)c1c(-c2ccc(C)cc2)csc1NC(=S)NC(=O)c1ccccc1 | – | inconclusive [activator, partial curve, poor fit] |
| CCC/C=C(\CCC)C(NC(=O)OCC(C)C)c1ccc(C(=O)OC)cc1 (stereo not drawn) | inactive: -0.718% | – |
| Cc1ccccc1OCC(O)COc1ccccc1C | – | inconclusive [activator, single point] |
| CC(=O)c1c(N2CCN(Cc3ccccc3)CC2)nc(=S)n(-c2ccccc2)c1C | – | inconclusive [activator, partial curve, poor fit] |
| COc1ccc(CNC(=O)C2CCCN(S(=O)(=O)c3ccc(F)cc3)C2)cc1 (stereo not drawn) | inactive: -0.949% | – |
| N#CCc1ccc(NC(=O)Nc2cccc(Cl)c2)cc1 | inactive: 21.9% | – |
| O=C(CSc1nnc(NC(=O)c2c(F)cccc2Cl)s1)Nc1ccccc1F | inactive: -3.15% | – |
| Cc1ccc[n+](/C(C(=S)NCc2ccco2)=C(/[O-])c2ccccc2Cl)c1 | inactive: 16.7% | – |
| c1ccc2c(c1)ccc1nnnn12 | – | inconclusive [activator, partial curve, poor fit] |
| Cc1cc(=O)oc2cc(OCC(=O)NCC3CCC(C(=O)O)CC3)ccc12 (stereo not drawn) | – | inconclusive [activator, single point] |
| CC(C)(C)NC(=O)COC(=O)c1cc(S(=O)(=O)N2CCCCC2)ccc1N1CCOCC1 | – | inconclusive [activator, partial curve, poor fit] |

| Structure (SMILES) | activity, positive = re-replication | Potency |
| --- | --- | --- |
| CCOc1cccc(C(=O)Nc2cccc(-c3nnc(-c4ccc(C)cc4)o3)c2)c1 | – | active: 3.66 µM |
| CCc1nnc(NC(=O)c2sc3nc4c(cc3c2N)CCCCCC4)s1 | – | active: 18.4 µM |
| CCSc1nnc(NC(=O)CSc2nccn2-c2cccc(C)c2C)s1 | inactive: 24.5% | – |
| Cc1cc(NC(=O)CSc2nc3c(cc2C#N)CCC3)no1 | – | inconclusive [activator, single point] |
| Cc1ccc(C(C[N+](=O)[O-])c2c(-c3ccccc3O)[nH][nH]c2=O)cc1 (stereo not drawn) | – | active: 11.6 µM |
| COc1ccc(C(NC(=O)C(C)C)c2c(O)ccc3ccccc23)cc1 (stereo not drawn) | – | active: 18.4 µM |
| N#Cc1cc(C(=O)c2ccccc2O)cn(-c2ccc(Cl)cc2)c1=O | – | inconclusive [activator, partial curve, poor fit] |
| Cc1cc(NC(=O)CSc2cn(CCNC(=O)c3ccccc3)c3ccccc23)no1 | – | inconclusive [activator, partial curve, poor fit] |
| Cn1c(Cn2c3ccccc3c3ccccc32)n[nH]c1=S | inactive: 5.36% | – |
| O=C(NCc1ccco1)C1CC(c2c(Cl)cccc2Cl)=NO1 (stereo not drawn) | – | inconclusive [activator, single point] |
| O=c1[nH]c(/C(Cl)=C/c2cc(Cl)ccc2O)nc2cc(Cl)ccc12 | – | active: 14.6 µM |
| Cc1ccc(C)c(N2CCN(C(=O)c3ccc4nc(-c5ccco5)c(-c5ccco5)nc4c3)CC2)c1 | – | inconclusive [activator, partial curve, poor fit] |
| Oc1ccc(Cl)cc1C(C#Cc1ccccc1)N1CCOCC1 (stereo not drawn) | – | inconclusive [activator, single point] |
| CN(C)CCc1cc2c(c3c1ccc1ccccc13)OCO2 | – | inconclusive [activator, single point] |
| C/C(CC(=O)Nc1ccc([N+](=O)[O-])cc1)=N\NC(=O)c1ccccc1O | – | inconclusive [activator, single point] |
| Cc1ccc(Cn2nnnc2CN2CCC(c3nc4ccc(Cl)cc4[nH]3)CC2)cc1 | – | inconclusive [activator, full curve, poor fit] |
| CN(C)c1ccc(CNc2ccc3c(c2)ncn3C(C)(C)C)cc1 | – | inconclusive [activator, single point] |
| COc1ccc(Oc2nccc(OC)c2C#N)cc1 | – | inconclusive [activator, single point] |
| COc1ccc(/C=C(\C#N)C(=O)Nc2ccc3[nH]c(=O)[nH]c3c2)cc1 | inactive: 1.78% | – |
| COc1cccc(CN2CCN(Cc3cccc(Br)c3)CC2)c1OC | – | inconclusive [activator, single point] |
| Cc1ccc(NC(=O)CN2C(=O)C3C4C=CC(C4)C3C2=O)cc1S(=O)(=O)N(C)C (stereo not drawn) | – | inconclusive [activator, partial curve, poor fit] |
| O=C1C2C3C=CC(C3)C2C(=O)N1/N=C/c1cc(Br)cc([N+](=O)[O-])c1O (stereo not drawn) | – | inconclusive [activator, full curve, poor fit] |
